Test results taken from PubChem BioAssay AID504333 (National Center for Advancing Translational Sciences (NCATS), 2011).
Where “and” joins values, the source holds several entries; their conditions need not be identical. Equal values may be shown once. Hit rate of the full screen: of about 360,000 compounds, about 16,000 (4.4%) were called active. Inconclusive means that the source gave no clear call. Such entries were picked first, then a sample of the others. Calls follow the shape of the dose curve; as a rule, active = well fitted inhibition curve with a large enough effect; inconclusive = small, poorly fitted or top-dose-only effect; inactive = no such curve, though single readings can be large or run the other way. A potency beside an inconclusive call is a rough fit, not a confirmed value.

The compounds below were run against Bromodomain adjacent to zinc finger domain protein 2B (Homo sapiens) (UniProt Q9UIF8) (assay: qHTS Assay for Inhibitors of BAZ2B). Conditions: AlphaScreen BAZ2B-H3K14Ac peptide displacement; activity change, negative = inhibition: at 114 µM (top of the series) unless noted.
How it was run: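 Multi-concentration screen (max 110 uM) measuring displacement of acetylated histone H3 peptide from BAZ2B by AlphaScreen, using 50 nM protein, 50 nM peptide and 10 ug/mL streptavidin donor plus Ni-chelate acceptor beads.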
% is scaled to controls: 0 for no effect and ±100 for the full control effect; potency is read from the fitted curve at half-maximal effect; tags tell the direction and shape of the fitted curve.
Also: nearly all actives have a fitted effect of over 60% in size.

UniProt Q9UIF8, sequence (Q9UIF8 whole entry, looked up, the tested form may be a part): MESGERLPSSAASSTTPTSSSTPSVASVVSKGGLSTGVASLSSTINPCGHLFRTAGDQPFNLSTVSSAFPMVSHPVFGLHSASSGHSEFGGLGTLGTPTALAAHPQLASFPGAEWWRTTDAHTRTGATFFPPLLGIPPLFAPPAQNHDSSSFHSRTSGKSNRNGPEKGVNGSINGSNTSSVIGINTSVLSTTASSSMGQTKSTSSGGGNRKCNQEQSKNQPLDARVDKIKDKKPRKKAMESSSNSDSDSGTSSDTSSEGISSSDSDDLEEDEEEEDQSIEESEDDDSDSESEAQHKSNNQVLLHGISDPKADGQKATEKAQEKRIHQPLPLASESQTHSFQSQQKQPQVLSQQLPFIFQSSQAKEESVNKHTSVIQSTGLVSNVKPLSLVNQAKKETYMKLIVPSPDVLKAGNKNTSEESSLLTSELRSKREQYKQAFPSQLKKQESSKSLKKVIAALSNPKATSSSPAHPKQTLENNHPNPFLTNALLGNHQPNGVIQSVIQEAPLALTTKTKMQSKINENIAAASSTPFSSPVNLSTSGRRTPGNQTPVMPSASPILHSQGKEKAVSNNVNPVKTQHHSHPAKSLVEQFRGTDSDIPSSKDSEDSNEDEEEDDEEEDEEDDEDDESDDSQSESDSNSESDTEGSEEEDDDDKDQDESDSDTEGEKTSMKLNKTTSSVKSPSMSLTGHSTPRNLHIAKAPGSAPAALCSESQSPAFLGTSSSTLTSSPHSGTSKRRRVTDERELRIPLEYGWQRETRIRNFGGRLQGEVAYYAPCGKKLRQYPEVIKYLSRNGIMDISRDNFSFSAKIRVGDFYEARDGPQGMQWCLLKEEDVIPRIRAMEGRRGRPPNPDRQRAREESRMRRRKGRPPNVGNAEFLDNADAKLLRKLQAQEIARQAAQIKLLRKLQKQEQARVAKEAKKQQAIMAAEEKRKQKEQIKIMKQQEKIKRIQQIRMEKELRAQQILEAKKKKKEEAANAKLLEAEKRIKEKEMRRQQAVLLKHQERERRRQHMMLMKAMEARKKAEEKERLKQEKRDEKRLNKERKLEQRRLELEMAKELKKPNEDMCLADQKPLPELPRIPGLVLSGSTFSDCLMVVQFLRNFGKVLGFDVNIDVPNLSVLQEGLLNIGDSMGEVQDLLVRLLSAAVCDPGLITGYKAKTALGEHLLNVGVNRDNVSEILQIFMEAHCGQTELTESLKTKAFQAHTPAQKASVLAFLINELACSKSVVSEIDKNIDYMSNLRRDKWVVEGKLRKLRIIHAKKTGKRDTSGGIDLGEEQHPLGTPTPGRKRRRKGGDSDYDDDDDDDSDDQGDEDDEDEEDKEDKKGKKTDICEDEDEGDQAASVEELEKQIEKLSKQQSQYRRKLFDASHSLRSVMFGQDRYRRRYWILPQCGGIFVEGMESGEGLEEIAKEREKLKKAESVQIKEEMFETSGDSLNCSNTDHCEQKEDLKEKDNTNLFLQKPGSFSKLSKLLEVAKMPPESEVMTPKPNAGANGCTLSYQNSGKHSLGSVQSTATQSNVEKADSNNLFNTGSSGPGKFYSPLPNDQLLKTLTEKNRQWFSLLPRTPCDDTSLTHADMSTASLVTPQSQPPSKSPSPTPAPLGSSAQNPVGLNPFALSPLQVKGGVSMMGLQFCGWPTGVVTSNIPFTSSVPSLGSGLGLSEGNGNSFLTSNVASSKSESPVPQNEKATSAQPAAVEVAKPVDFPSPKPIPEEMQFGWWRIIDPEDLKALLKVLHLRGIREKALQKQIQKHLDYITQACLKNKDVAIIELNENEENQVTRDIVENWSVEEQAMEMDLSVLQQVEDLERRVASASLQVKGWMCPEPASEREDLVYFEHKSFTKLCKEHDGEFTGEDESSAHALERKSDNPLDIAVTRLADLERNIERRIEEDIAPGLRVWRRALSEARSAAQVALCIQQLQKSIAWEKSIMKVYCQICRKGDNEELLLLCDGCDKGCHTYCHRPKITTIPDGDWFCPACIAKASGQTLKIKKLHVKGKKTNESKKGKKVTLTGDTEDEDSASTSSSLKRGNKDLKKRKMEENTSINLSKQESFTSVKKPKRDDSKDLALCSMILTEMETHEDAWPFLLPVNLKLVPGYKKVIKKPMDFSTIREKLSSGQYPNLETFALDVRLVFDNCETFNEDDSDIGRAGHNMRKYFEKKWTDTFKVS

SMILES | Potency | activity change, negative = inhibition
COc1ccccc1C1CC(c2ccc(Cl)cc2Cl)Nc2nc(N)nn21 (configuration not stated) | inconclusive: 50.1 µM [inhibitor, partial curve] | –
Cc1ccc(/C=C2\SC(=S)N(CCC(=O)NNC(=O)c3ccc(O)cc3)C2=O)cc1 | – | inactive: -18.5%
O=C1CC(Cc2ccccc2)C(=O)N1Cc1ccco1 (configuration not stated) | – | inactive: -33.4%
COCc1cc(=O)n2[nH]c(SCc3ccccc3)nc2n1 | inconclusive: 89.1 µM [inhibitor, single point] | –
COc1ccc2c(c1)c(=O)c(C(=O)c1ccccc1)cn2CC(=O)Nc1ccc2c(c1)OCCO2 | inconclusive: 79.4 µM [inhibitor, single point] | –
OC(C#CCN1CCCC1)(c1ccccc1)c1cccnc1 (configuration not stated) | active: 79.4 µM | –
Cc1ccc(S(=O)(=O)Nc2nc(C)c(NC(=O)OCCCl)s2)cc1 | inconclusive: 100 µM [inhibitor, single point] | –
COc1ccc(NC(=S)N(CCc2c(C)[nH]c3ccccc23)Cc2ccco2)cc1 | inconclusive: 44.7 µM [inhibitor, partial curve] | –
O=C(NCc1ccccc1F)C1CCN(c2nnc(-n3cccc3)s2)CC1 | – | inactive: 10.5% [at 57.1 µM]
CNC[C@H](CC1CCCCC1)NC[C@H](Cc1ccccc1)NCCC12CC3CC(CC(C3)C1)C2 | inconclusive: 44.7 µM [inhibitor, partial curve] | –
COc1ccc(CCN2CC(C(=O)NC3CCCCC3)CC2=O)cc1OC (configuration not stated) | active: 50.1 µM | –
NC(=S)Nc1ccc(F)c(F)c1F | – | inactive: -23%
COc1ccc(C2/C(=C(/O)c3ccc4c(c3)CC(C)O4)C(=O)C(=O)N2CCCn2ccnc2)cc1 (configuration not stated) | inconclusive: 56.2 µM [inhibitor, partial curve, poor fit] | –
O=[N+]([O-])c1ccccc1CN1CCN(Cc2c[nH]c3ccccc23)CC1 | active: 50.1 µM | –
O=C1/C(=C/c2cccc([N+](=O)[O-])c2)CCc2ccccc21 | inconclusive: 10 µM [inhibitor, full curve, poor fit] | –
COc1cc2c(=O)c(C(=O)c3ccc(C)c(C)c3)cn(Cc3ccccc3F)c2cc1OC | – | inactive: 3.94%
O=c1[nH]c2ccc(S(=O)(=O)N3CCN(c4ccccc4)CC3)cc2[nH]c1=O | inconclusive: 89.1 µM [inhibitor, single point] | –
CC1CC1C(=O)OCC(=O)Nc1ccc(N=Nc2ccccc2)cc1 (configuration not stated) | active: 28.2 µM | –
Cc1ccccc1NC(=S)N1CCN(c2ccccc2Cl)CC1 | inconclusive: 56.2 µM [inhibitor, partial curve] | –
Cc1cc(NS(=O)(=O)c2ccc(NC(=O)C(C)Oc3ccc(Cl)cc3)cc2)no1 (configuration not stated) | inconclusive: 100 µM [inhibitor, single point] | –
CCc1ccc(CNC(=O)c2c3c(nc4ccccc24)C(=O)N(C2CCCCC2)C3)cc1 | inconclusive: 89.1 µM [inhibitor, single point] | –
Cc1ccc2sc(N(CCN(C)C)C(=O)c3ccc(S(=O)(=O)N4CC(C)OC(C)C4)cc3)nc2c1C (configuration not stated) | inconclusive: 44.7 µM [inhibitor, partial curve] | –
Cn1c(C(C#N)C2=C(Cl)C(=O)N(c3ccccc3)C2=O)nc2ccccc21 (configuration not stated) | active: 8.91 µM | –
Cc1ccc(C2C(C#N)=C(N)Oc3n[nH]c(-c4cccnc4)c32)o1 (configuration not stated) | inconclusive: 79.4 µM [inhibitor, single point] | –

SMILES | Potency | activity change, negative = inhibition
Clc1ccc(OCCN2CCCCC2)cc1Cl | inconclusive: 89.1 µM [inhibitor, single point] | –
COc1ccc(F)cc1C(=O)C1CCCN(Cc2cccn2-c2cccnc2)C1 (configuration not stated) | inconclusive: 22.4 µM [inhibitor, full curve] | –
CCC(C)NC(=O)CSc1nc2cc3c(cc2c(=O)n1CCCC(=O)NCCc1ccc(OC)c(OC)c1)OCO3 (configuration not stated) | – | inactive: -3.31%
COC(=O)c1ccc(NC(=O)COc2coc(CN3CCc4ccccc43)cc2=O)cc1 | inconclusive: 89.1 µM [inhibitor, single point] | –
Cc1nn(S(=O)(=O)c2ccc(F)cc2)c(C)c1S(=O)(=O)N1CCOCC1 | inconclusive: 89.1 µM [inhibitor, single point] | –
CN(C)c1ccc(N=Cc2cccn2C)cc1 | active: 20 µM | –
CN(C)CCCN(C(=O)c1ccc(S(=O)(=O)N(C)Cc2ccccc2)cc1)c1nc2c(F)cccc2s1 | inconclusive: 20 µM [inhibitor, full curve] | –
COc1ccccc1C(=O)Nc1c(C(=O)N(CCN(C)C)Cc2ccco2)oc2ccccc12 | inconclusive: 39.8 µM [inhibitor, single point] and inconclusive: 44.7 µM [inhibitor, partial curve] | –
COc1ccnc(CSC(N)=Nc2cccc(C(F)(F)F)c2)c1 | active: 35.5 µM | –
O=C(O)c1ccccc1/C=N/n1c(C2CCCCC2)n[nH]c1=S | – | inactive: -12%
CCc1ccc(Nc2n[n+](-c3ccccc3)c(-c3cccc(Cl)c3Cl)s2)cc1 | inconclusive: 89.1 µM [inhibitor, single point] | –
CN1N=C2c3ccccc3CCC2C1c1ccc(F)cc1 (configuration not stated) | inconclusive: 79.4 µM [inhibitor, single point] | –
Cc1ccc(/C=N/N=C2/NC(=O)C(CC(=O)N3CCOCC3)S2)cc1 (configuration not stated) | inconclusive: 79.4 µM [inhibitor, single point] | –
COC(=O)c1ccc(COC(=O)c2ccc(SC)cc2OC)cc1 | – | inactive: 32.7%
CCC(C)[C@@H](C(=O)N1CCNCC1)n1cc(CCCCN)nn1 (some centres not stated) | inconclusive: 89.1 µM [inhibitor, single point] | –
O=C(/C=C/c1ccc(S(=O)(=O)N2CCOCC2)cc1)NCCc1ccc(C(F)(F)F)cc1 | – | inactive: -3.34%
Cc1nc(NC(=O)CC(C)C)sc1-c1csc(Nc2ccc(Cl)cc2)n1 | inconclusive: 89.1 µM [inhibitor, single point] | –
O=C1C2CC=CCC2C(=O)N1c1ccc(N2CCN(c3ccccn3)CC2)c([N+](=O)[O-])c1 (configuration not stated) | active: 8.91 µM | –
Cc1sc(-n2cccc2)c(C(=O)O)c1C | active: 50.1 µM | –
CN(Cc1cnccn1)Cc1ccccc1OCC(O)CN1CCc2ccccc2C1 (configuration not stated) | inconclusive: 1 µM [inhibitor, full curve, poor fit] | –
CCc1ccc(OCCCSc2nc(-c3ccc(C(C)(C)C)cc3)nc3cc(=O)[nH]n23)cc1 | active: 50.1 µM | –
Cc1ccc(N=C/C(C(=O)C(F)(F)F)=C(\O)c2ccco2)cc1Cl | – | inactive: -0.306%
CC(=O)C1=C(O)C(=O)N(CCc2c[nH]c3ccccc23)C1c1ccccc1 (configuration not stated) | inconclusive: 79.4 µM [inhibitor, partial curve] | –
CCOC(=O)CSc1n[nH]c(NC(=O)CC)n1 | – | inactive: -23.2%

SMILES | Potency | activity change, negative = inhibition
CCCCCOc1ccc(Cn2ccnc2)cc1[N+](=O)[O-] | inconclusive: 44.7 µM [inhibitor, partial curve] | –
O=C1C2Sc3[nH]c(=O)sc3C(c3ccccc3)C2C(=O)N1c1ccc(Cl)cc1 (configuration not stated) | inconclusive: 44.7 µM [inhibitor, partial curve] | –
CC(C)N1CCc2c(sc(NC(=O)Cc3ccccc3)c2C(N)=O)C1 | inconclusive: 89.1 µM [inhibitor, single point] | –
CN1CCC(N(C)S(=O)(=O)c2ccc(NC(=O)COc3ccc([N+](=O)[O-])cc3)cc2)CC1 | inconclusive: 89.1 µM [inhibitor, single point] | –
COc1ccc(C)cc1Nc1nc(-c2c(C)[nH]c3ccccc23)cs1 | active: 50.1 µM | –
CC(=O)c1c(C)[nH]c(C(=O)NCc2cccs2)c1C | inconclusive: 89.1 µM [inhibitor, single point] | –
CCSc1nnc(NC(=O)c2ccccn2)s1 | active: 6.31 µM | –
CCSc1nc2ccccc2n1C(=O)/C=C\c1ccc(OC)c(OC)c1 | – | inactive: -0.871%
Cc1ccc(OCCn2cc(C(=O)C3CCCCC3)c3ccccc32)cc1 | – | inactive: 3.09%
C#CCOCCOCCOCCNc1nc(N2CCN(C(=O)CCCCCCCCCCNC(=O)[C@H]([C@@H](C)CC)n3cc(CCCCN=C(N)N)nn3)CC2)nc(N2CCN(C(=O)CCCCCCCCCCNC(=O)[C@H](CO)n3cc(CCCSC)nn3)CC2)n1 | active: 50.1 µM | –
COc1ccc(NC(=O)Cn2nc([N+](=O)[O-])c(Cl)c2C)cc1OC | – | inactive: 2.6%
COC(=O)C1=C(C)N(Cc2ccccc2)C(=NCC(C)C)N[C@H]1c1ccccc1 | inactive | –
Cc1cccc(Cn2c(CN3CCC(C(=O)NCc4cccnc4)CC3)cc3ccccc32)c1 | inconclusive: 50.1 µM [inhibitor, partial curve] | –
CC(NC(=O)c1ccc(OC2CCN(Cc3ccccn3)CC2)cc1)c1ccccc1 (configuration not stated) | inconclusive: 39.8 µM [inhibitor, partial curve] | –
O=C(O)CN1C(=O)/C(=C\C(Br)=C\c2ccccc2)SC1=S | active: 44.7 µM | –
c1ccc(N2CCN(Cc3nc4ccccc4[nH]3)CC2)nc1 | – | inactive: 0.639%
Cc1c(Cl)cccc1NC(=S)NCc1cccn1C | inconclusive: 44.7 µM [inhibitor, partial curve] | –
CN(CCOc1ccccc1)CC(O)COCc1ccccc1F (configuration not stated) | active: 70.8 µM | –
C/C(=N/NC(=O)Cc1cccs1)c1ccco1 | – | inactive: -1.84%
Cc1ccc(F)cc1NC(=O)C1C2CCC(O2)C1C(=O)O (configuration not stated) | – | inactive: 25%
O=C(Nc1ccccc1Cl)c1ccc(-n2cccn2)c([N+](=O)[O-])c1 | inconclusive: 89.1 µM [inhibitor, single point] | –
CCN1CCN(CCOc2ccc(Br)cc2C)CC1 | active: 22.4 µM | –
COc1ccc(CC(=O)OCC(=O)Nc2ccc3[nH]c(=O)[nH]c3c2)cc1 | – | inactive: 8.57%
CCOC(=O)c1ccc(NC(=O)c2c(NCc3cccs3)sc3c2CCCCC3)cc1 | inconclusive: 56.2 µM [inhibitor, partial curve] | –
